Measured values from the supplement of paper PMC11417369.
± gives the standard deviation of the averaged measurements. The list shows a part of the results.

system: PfAP2-G AP2 domain (GST-tagged); assay: gcPBM binding intensity (ln(normalized median fluorescence intensity)); higher = stronger DNA binding
Procedure, shortened: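 Using an Agilent 4 × 180k array, primer-extended double-stranded 36-bp intergenic genomic probes and negative controls were exposed for 1 h to GST-fused P. falciparum DNA-binding domains expressed in E. coli. Binding was carried out in 1× PBS with 1% milk, 0.2 mg/ml BSA, 0.5% salmon testes DNA and 0.03% Triton X-100, and protein was detected with Alexa488 anti-GST antibody and a 488 nm scan. Binding intensity is the highest Masliner-normalised natural-log median intensity across replicate spots of either probe orientation.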

| Sequence | gcPBM binding intensity (ln) |
| --- | --- |
| ATTATAACCATATACACACCCATATAAATAAATATA [CACACA_site6926] | 10.17 ± 0.099 |
| CGTTTTAATAAGATCACACATATAATATATATATAT [CACACA_site5159] | 9.88 ± 0.18 |
| TCAAATATATAGAATACACACATGGATATAAGAAAT [CACACA_site4065] | 9.99 ± 0.057 |
| TATATATATACATATTGTACATGTGTATATTTTTTT [XGTACX_site361] | 11 ± 0.49 |
| TTAGTTATTAAAAAAAGTACATAAGTAGATATCATC [XGTACX_site8712] | 11.4 ± 1 |
| AAAATTTAATATAATGCACACATAAAAAAAAAAAAA [CACACA_site7923] | 9.99 ± 0.42 |
| CCATTTTTTTTATACGCACACGTCATACTTTTAAAA [CACACA_site4988] | 10.7 ± 0.33 |
| ACATATGAATATAATACACACTTGTATTATTAATAT [CACACA_site8546] | 9.94 ± 0.17 |
| TTACCTTTATTGTATGAACACACATAAGCTGATACA [CACACA_site9334] | 10.1 ± 0.2 |
| AAAAAAAAAAAAAGAGTGCAAACTATGATAATTTAA | 9.93 ± 0.042 |
| TTATTTCATTCTTGAAGTACGTGAAAAATGAAAACA [XGTACX_site4089] | 11.4 ± 1.1 |
| GAATAATATGGACATACACACATATACATACATATA [CACACA_site2114] | 10.9 ± 0.51 |
| TGAATACAAATTTACGCATGTAATTTCCAGAGGGAG [TGCATGCA_site769] | 10 ± 0.18 |
| AAAATAAAAGAAAAAAGTACAAAATCAGATTAATTA [XGTACX_site8413] | 11.1 ± 0.63 |
| TACTAATATGATATATAAATATTGTTATATAATAAT [XGTACX_negctrl_site227] | 9.63 ± 0.13 |
| TATAAAATATAATTAGCACACATATATAAAATATAT [CACACA_site9355] | 9.855 ± 0.049 |
| AATATATGTAATATATGTACTTAATTATATTTTAAT [XGTACX_site4382] | 11 ± 0.79 |
| TATATTTATTTATTCTGTACTGAAGACAGTTATGTA [XGTACX_site8857] | 10.8 ± 0.58 |
| ATAAATATATATATAGTGCATATAAGCCACCTTCAA [GTGCAC_site9628] | 10.03 ± 0.042 |
| TATATAATACAACATGCACACATATATATGTGAATC [CACACA_site8794] | 10.01 ± 0.064 |
| GTATATTTTTAAAGGTGTACTTTTTTTTTTTTTTTT [XGTACX_site721] | 11.8 ± 1.1 |
| ATATAAAACTATAATACACACATAAAATATATTATA [CACACA_site6588] | 9.89 ± 0.028 |
| CGTAATAAAAACAAATGTACATGACCTGGACAGGTT [XGTACX_site6560] | 11.3 ± 0.43 |

| Sequence | gcPBM binding intensity (ln) |
| --- | --- |
| AAACAAAATAAATATGAACACACACCGTTATGCCTT [CACACA_site8347] | 9.87 ± 0.17 |
| TATTTGTGGATTTTTACACACATTAATATATATATA [CACACA_site3375] | 9.92 ± 0.14 |
| AGGAAAATTATGAATGGTACAGAATATATTAGGAGA [XGTACX_site6282] | 10.6 ± 0.23 |
| AAGGAACTATAATATACACACATAAGTGTACTTATA [CACACA_site7816] | 11.5 ± 1 |
| ATATATGCATATATTTGTACACATTTTTTTACATAA [XGTACX_site4624] | 11.4 ± 0.71 |
| AAAAAAACGTAAAAATGTACTTTTTGTATATAACCT [XGTACX_site7950] | 11.1 ± 0.57 |
| AATAAGTTATTATTTTGTACACATAAATAATACGTT [XGTACX_site814] | 11.3 ± 0.93 |
| GCACTAAAAAAATAAACACACAGATTTATATAATAT [CACACA_site1381] | 9.87 ± 0.028 |
| TATTCGTGCAATAGTAGTACACTTAAAAATTATTCA [XGTACX_site269] | 11.6 ± 1.1 |
| AAAATACACAGACACACACACATATAAATAAATATT [CACACA_site7871] | 10.2 ± 0.25 |
| ATTCGTTATAAAATATGTACATAAATATATATATAT [XGTACX_site2819] | 11.3 ± 0.67 |
| TAAAGCGACATTTGGAAAATATATATCCTAGCATTT [CACACA_negctrl_site327] | 9.82 ± 0.12 |
| TTATAAAATAAACTTACACACATGAAATATTATATT [CACACA_site1945] | 9.865 ± 0.021 |
| ACATAGATGCATATCACACATAATAATATTGTCGTA [CACACA_site4819] | 9.835 ± 0.021 |
| ATAATAAGACGATAAGGTACACAAAATGTTAATATA [XGTACX_site6984] | 11.1 ± 0.63 |
| GTAGACTGAAACCACACACACATATATATATATATT [CACACA_site605] | 10.2 ± 0.14 |
| TAATATTTCGCACTGTGTACTGAAATATTTATATCG [XGTACX_site516] | 11.2 ± 0.87 |
| ATATTAATATATAGAAGTACTCACATGTTAATATAA [XGTACX_site7323] | 11.4 ± 0.64 |
| TAACTATCATGTATTACACACAATATTTATTATATA [CACACA_site2701] | 9.99 ± 0.099 |
| TTAAATAAATAAATAACACACATATAAAAATAACGC [CACACA_site3266] | 10.05 ± 0.092 |
| AATAATAATAAAAATAAACACACATATATATGTATA [CACACA_site8928] | 9.58 ± 0.23 |
| ATTTCTTTTGTTATAGTGCATAATATTTATGTACGT | 10.7 ± 0.15 |
| AAAGAAAGAAAGAAAAGTACTTAAACTTTTAAAAAT [XGTACX_site8531] | 11.2 ± 0.61 |

| Sequence | gcPBM binding intensity (ln) |
| --- | --- |
| TATTCAAATTTCCACATACACACCTTGTAGATATAT [CACACA_site281] | 9.975 ± 0.064 |
| AAGACAAATTTTACATGTACAAATATATTACATATA [XGTACX_site7060] | 10.8 ± 0.35 |
| AAGAAAAAAAGCAACACACGTACCAACACAATTATG [CACACA_site3133] | 11 ± 0.49 |
| ATTTTTTTCCACTAGTGTACAAATTTTACATTGTGT [XGTACX_site5023] | 11.3 ± 0.81 |
| ACTAATGTAAAAGTTTGTACATATATTGAGAATTAT [XGTACX_site7439] | 11 ± 0.57 |
| CTATAATATTAGTGCACACACAAAAATGTACTAAAC [CACACA_site6442] | 11.1 ± 0.64 |
| AAGAAAAAAACAAAAAAAAAAAAAAAAATTCTTATT [TGCATGCA_negctrl_site504] | 9.26 ± 0.23 |
| AAAAGCACCGTTCGTTGTACACTGAAACACTTTTGT [XGTACX_site199] | 11.1 ± 0.63 |
| GTTATAAATTTTTTTTTTTTTTTTTTTTTTTTTTTT [CACACA_negctrl_site848] | 11 ± 0.43 |
| TAAAAAAAAACAGAAACACACATTATTCATATAGAT [CACACA_site7052] | 9.68 ± 0.4 |
| ATAAAATAAAAGGAATGTACTTTTTTTATTGTAATT [XGTACX_site4372] | 11.4 ± 0.88 |
| AACAAATTGAAACAATAATTGGAAAAAAAAAAAAAA [CACACA_negctrl_site1145] | 9.62 ± 0.4 |
| AACAAATACGGACACACACACACACTAGAAAAAAAA [CACACA_site4442] | 11.4 ± 0.86 |
| ATATATATATATATATGTACTCATATTTTATTATTT [XGTACX_site898] | 11.4 ± 0.94 |
| AAATGTATATATGTATGTACATATATATATATATAT [XGTACX_site5778] | 11.1 ± 0.61 |
| AGTTTCTATTTAGTGTGTACTTAAGAAAAATATCTC [XGTACX_site82] | 11.3 ± 0.79 |
| ATAAACTGAGTGGTTACACACAAAACCAATAATTTT [CACACA_site3478] | 10.29 ± 0.092 |
| TCGCAAATAAATTAATGTACACATATATATATATAT [XGTACX_site5145] | 11.3 ± 0.86 |
| TATTGATAATTTTATATATACATACATAAATAAATA [CACACA_negctrl_site1687] | 9.79 ± 0.22 |
| TTTTCAATTTTTTATGAACACACAAAAAAAAAAAAA [CACACA_site8808] | 10.1 ± 0.55 |
| AATATATATAAAAAAGTGCATTAGGATAACCATATA [GTGCAC_site9590] | 10.2 ± 0.13 |
| TATATTTTATATTAGTGTACAAATTTCATTTTTCAT [XGTACX_site2204] | 11 ± 0.5 |
| TATATATATATATTCACACATATAGTATTGTATTTA [CACACA_site5147] | 9.96 ± 0.39 |

| Sequence | gcPBM binding intensity (ln) |
| --- | --- |
| TAATAATAGAAACACACACACATTTTTAATAATACA [CACACA_site1216] | 10.1 ± 0.21 |
| ATATATTTATATTTGTGTACATATTTATTATATTTA [XGTACX_site404] | 11.5 ± 0.67 |
| AATATGAATATCTATACACACACATATATATACACA [CACACA_site8459] | 9.865 ± 0.007 |
| ATTTGTGACCACACAAATAAATAAATAAAAAAAAAA [TGCATGCA_negctrl_site328] | 11.2 ± 1 |
| TGTTAAAAGAAAAAAAGTACAAAAAATTATACATTT [XGTACX_site467] | 11.2 ± 0.75 |
| AAGAAGAAAAACCATTGTACGAACTAACATATATAA [XGTACX_site3226] | 11 ± 0.49 |
| GGTATACATAATACTTGTACTAGGCAACAATAAGAT [XGTACX_site1437] | 10.8 ± 0.52 |
| AAAAAAAATTTCTCAAGTACACAATTTTTTTTTGTT [XGTACX_site5874] | 11.4 ± 0.92 |
| TTTTTTTAAATATATAAGATAAATTTATAAATAAAT [XGTACX_negctrl_site282] | 9.72 ± 0.3 |
| ATATCAAACTAGAATGTGCGCATGCATTCAAGTTTT | 9.84 |
| TTATGTTCATTATATGCACACATATATATAAATGTA [CACACA_site8947] | 9.92 ± 0.17 |
| GATTTTATAATTTCTACACACATATAAGAATATTCA [CACACA_site2802] | 10.1 ± 0.23 |
| TTATAATAAAAAAATTCCTAAGTCCGTATATATTAT [CACACA_negctrl_site1698] | 10.4 ± 0.45 |
| TTTTATTTTTATAACAGTACATAAGTAATTGTTCAA [XGTACX_site7574] | 10.6 ± 0.47 |
| TTTTATCATCACATTTGTCAAAAAAAAAAAAAAAAA [CACACA_negctrl_site1296] | 9.85 ± 0.64 |
| ATATTCTTTATATGCATACACACCTAATATAGGGAC [CACACA_site1533] | 10.2 ± 0.16 |
| AAATTTGGATGACTCAATAAATTATAATATATATAT [CACACA_negctrl_site298] | 9.85 ± 0.085 |
| ATTATTACATATAATGCATGTGCATATATTTTTATA [TGCATGCA_site701] | 10 ± 0.11 |
| TTCAATTTTTTAAAGCGTACATATAAAAGTTATATG [XGTACX_site731] | 11.4 ± 0.86 |
| AATCATTTGTTATAAGTCTAAAATTATTAGAATATT [XGTACX_negctrl_site151] | 9.65 ± 0.26 |
